{
  "source": "the supplement of paper PMC8728848",
  "test_in_all_cases": "glycan array binding signal (z-score within array); higher = stronger binding",
  "details_in_all_cases": "glycan notation: IUPAC condensed, linker removed",
  "key": {"[1]": {"target": "Gal(b1-4)GlcNAc(b1-2)[Gal(b1-4)GlcNAc(b1-6)]Man(a1-6)[Gal(b1-4)GlcNAc(b1-2)Man(a1-3)]Man(b1-4)GlcNAc(b1-4)[Fuc(a1-6)]GlcNAc", "procedure,_shortened": "(§1)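 Glycan array data came from 3228 arrays in the Consortium for Functional Glycomics database, and only arrays with an available protein sequence were kept. Glycan names were put into IUPAC-condensed notation, and columns mapping to the same glycan were averaged. The binding signal is a within-array Z-score, averaged across arrays of one protein sequence run at different concentrations or buffers and across linkers. A negative Z-score can be read as non-binding.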"}, "[2]": {"target": "Gal(b1-4)GlcNAc(b1-2)[Gal(b1-4)GlcNAc(b1-6)]Man(a1-6)[GlcNAc(b1-4)][Gal(b1-4)GlcNAc(b1-2)Man(a1-3)]Man(b1-4)GlcNAc(b1-4)GlcNAc", "procedure,_shortened": "as §1"}, "[3]": {"target": "Gal(b1-4)GlcNAc(b1-2)[Gal(b1-4)GlcNAc(b1-6)]Man(a1-6)[GlcNAc(b1-4)][Gal(b1-4)GlcNAc(b1-2)[Gal(b1-4)GlcNAc(b1-4)]Man(a1-3)]Man(b1-4)GlcNAc(b1-4)[Fuc(a1-6)]GlcNAc", "procedure,_shortened": "as §1"}, "[4]": {"target": "Gal(b1-4)GlcNAc(b1-3)Gal(b1-3)GalNAc", "procedure,_shortened": "as §1"}, "[5]": {"target": "Gal(b1-4)GlcNAc(b1-3)Gal(b1-3)GlcNAc", "procedure,_shortened": "as §1"}, "[6]": {"target": "Gal(b1-4)GlcNAc(b1-3)Gal(b1-4)Glc", "procedure,_shortened": "as §1"}, "[7]": {"target": "Gal(b1-4)GlcNAc(b1-3)Gal(b1-4)GlcNAc", "procedure,_shortened": "as §1"}, "[8]": {"target": "Gal(b1-4)GlcNAc(b1-3)Gal(b1-4)GlcNAc(b1-2)Man(a1-3)[Gal(b1-4)GlcNAc(b1-3)Gal(b1-4)GlcNAc(b1-2)Man(a1-6)]Man(b1-4)GlcNAc(b1-4)GlcNAc", "procedure,_shortened": "as §1"}, "[9]": {"target": "Gal(b1-4)GlcNAc(b1-3)Gal(b1-4)GlcNAc(b1-2)Man(a1-3)[Gal(b1-4)GlcNAc(b1-3)Gal(b1-4)GlcNAc(b1-2)Man(a1-6)]Man(b1-4)GlcNAc(b1-4)[Fuc(a1-6)]GlcNAc", "procedure,_shortened": "as §1"}, "[10]": {"target": "Gal(b1-4)GlcNAc(b1-3)Gal(b1-4)GlcNAc(b1-2)[Gal(b1-4)GlcNAc(b1-3)Gal(b1-4)GlcNAc(b1-6)]Man(a1-6)[Gal(b1-4)GlcNAc(b1-3)Gal(b1-4)GlcNAc(b1-2)Man(a1-3)]Man(b1-4)GlcNAc(b1-4)GlcNAc", "procedure,_shortened": "as §1"}, "[11]": {"target": "Gal(b1-4)GlcNAc(b1-3)Gal(b1-4)GlcNAc(b1-2)[Gal(b1-4)GlcNAc(b1-3)Gal(b1-4)GlcNAc(b1-6)]Man(a1-6)[Gal(b1-4)GlcNAc(b1-3)Gal(b1-4)GlcNAc(b1-2)Man(a1-3)]Man(b1-4)GlcNAc(b1-4)[Fuc(a1-6)]GlcNAc", "procedure,_shortened": "as §1"}, "[12]": {"target": "Gal(b1-4)GlcNAc(b1-3)Gal(b1-4)GlcNAc(b1-3)Gal(b1-4)GlcNAc", "procedure,_shortened": "as §1"}, "[13]": {"target": "Gal(b1-4)GlcNAc(b1-3)Gal(b1-4)GlcNAc(b1-3)Gal(b1-4)GlcNAc(b1-2)Man(a1-3)[Gal(b1-4)GlcNAc(b1-3)Gal(b1-4)GlcNAc(b1-3)Gal(b1-4)GlcNAc(b1-2)Man(a1-6)]Man(b1-4)GlcNAc(b1-4)GlcNAc", "procedure,_shortened": "as §1"}, "[14]": {"target": "Gal(b1-4)GlcNAc(b1-3)Gal(b1-4)GlcNAc(b1-3)Gal(b1-4)GlcNAc(b1-2)Man(a1-3)[Gal(b1-4)GlcNAc(b1-3)Gal(b1-4)GlcNAc(b1-3)Gal(b1-4)GlcNAc(b1-2)Man(a1-6)]Man(b1-4)GlcNAc(b1-4)[Fuc(a1-6)]GlcNAc", "procedure,_shortened": "as §1"}, "[15]": {"target": "Gal(b1-4)GlcNAc(b1-3)Gal(b1-4)GlcNAc(b1-3)Gal(b1-4)GlcNAc(b1-2)[Gal(b1-4)GlcNAc(b1-3)Gal(b1-4)GlcNAc(b1-3)Gal(b1-4)GlcNAc(b1-6)]Man(a1-6)[Gal(b1-4)GlcNAc(b1-3)Gal(b1-4)GlcNAc(b1-3)Gal(b1-4)GlcNAc(b1-2)Man(a1-3)]Man(b1-4)GlcNAc(b1-4)[Fuc(a1-6)]GlcNAc", "procedure,_shortened": "as §1"}, "[16]": {"target": "Gal(b1-4)GlcNAc(b1-3)Gal(b1-4)GlcNAc(b1-3)Gal(b1-4)GlcNAc(b1-3)Gal(b1-4)GlcNAc(b1-2)Man(a1-3)[Gal(b1-4)GlcNAc(b1-3)Gal(b1-4)GlcNAc(b1-3)Gal(b1-4)GlcNAc(b1-3)Gal(b1-4)GlcNAc(b1-2)Man(a1-6)]Man(b1-4)GlcNAc(b1-4)GlcNAc", "procedure,_shortened": "as §1"}, "[17]": {"target": "Gal(b1-4)GlcNAc(b1-3)Gal(b1-4)GlcNAc(b1-3)Gal(b1-4)GlcNAc(b1-3)Gal(b1-4)GlcNAc(b1-2)Man(a1-3)[Gal(b1-4)GlcNAc(b1-3)Gal(b1-4)GlcNAc(b1-3)Gal(b1-4)GlcNAc(b1-3)Gal(b1-4)GlcNAc(b1-2)Man(a1-6)]Man(b1-4)GlcNAc(b1-4)[Fuc(a1-6)]GlcNAc", "procedure,_shortened": "as §1"}, "[18]": {"target": "Gal(b1-4)GlcNAc(b1-3)Gal(b1-4)GlcNAc(b1-3)Gal(b1-4)GlcNAc(b1-3)Gal(b1-4)GlcNAc(b1-2)[Gal(b1-4)GlcNAc(b1-3)Gal(b1-4)GlcNAc(b1-3)Gal(b1-4)GlcNAc(b1-3)Gal(b1-4)GlcNAc(b1-6)]Man(a1-6)[Gal(b1-4)GlcNAc(b1-3)Gal(b1-4)GlcNAc(b1-3)Gal(b1-4)GlcNAc(b1-3)Gal(b1-4)GlcNAc(b1-2)Man(a1-3)]Man(b1-4)GlcNAc(b1-4)[Fuc(a1-6)]GlcNAc", "procedure,_shortened": "as §1"}, "[19]": {"target": "Gal(b1-4)GlcNAc(b1-3)Gal(b1-4)GlcNAc(b1-3)Gal(b1-4)GlcNAc(b1-3)Gal(b1-4)GlcNAc(b1-3)Gal(b1-4)GlcNAc(b1-2)Man(a1-3)[Gal(b1-4)GlcNAc(b1-3)Gal(b1-4)GlcNAc(b1-3)Gal(b1-4)GlcNAc(b1-3)Gal(b1-4)GlcNAc(b1-3)Gal(b1-4)GlcNAc(b1-2)Man(a1-6)]Man(b1-4)GlcNAc(b1-4)GlcNAc", "procedure,_shortened": "as §1"}, "[20]": {"target": "Gal(b1-4)GlcNAc(b1-3)Gal(b1-4)GlcNAc(b1-3)Gal(b1-4)GlcNAc(b1-3)Gal(b1-4)GlcNAc(b1-3)Gal(b1-4)GlcNAc(b1-2)Man(a1-3)[Gal(b1-4)GlcNAc(b1-3)Gal(b1-4)GlcNAc(b1-3)Gal(b1-4)GlcNAc(b1-3)Gal(b1-4)GlcNAc(b1-3)Gal(b1-4)GlcNAc(b1-2)Man(a1-6)]Man(b1-4)GlcNAc(b1-4)[Fuc(a1-6)]GlcNAc", "procedure,_shortened": "as §1"}, "[21]": {"target": "Gal(b1-4)GlcNAc(b1-3)Gal(b1-4)GlcNAc(b1-3)Gal(b1-4)GlcNAc(b1-3)Gal(b1-4)GlcNAc(b1-3)Gal(b1-4)GlcNAc(b1-2)[Gal(b1-4)GlcNAc(b1-3)Gal(b1-4)GlcNAc(b1-3)Gal(b1-4)GlcNAc(b1-3)Gal(b1-4)GlcNAc(b1-3)Gal(b1-4)GlcNAc(b1-6)]Man(a1-6)[Gal(b1-4)GlcNAc(b1-3)Gal(b1-4)GlcNAc(b1-3)Gal(b1-4)GlcNAc(b1-3)Gal(b1-4)GlcNAc(b1-3)Gal(b1-4)GlcNAc(b1-2)Man(a1-3)]Man(b1-4)GlcNAc(b1-4)[Fuc(a1-6)]GlcNAc", "procedure,_shortened": "as §1"}, "[22]": {"target": "Gal(b1-4)GlcNAc(b1-3)Gal(b1-4)GlcNAc(b1-3)Gal(b1-4)GlcNAc(b1-3)Gal(b1-4)GlcNAc(b1-3)Gal(b1-4)GlcNAc(b1-3)Gal(b1-4)GlcNAc(b1-2)Man(a1-3)[Gal(b1-4)GlcNAc(b1-3)Gal(b1-4)GlcNAc(b1-3)Gal(b1-4)GlcNAc(b1-3)Gal(b1-4)GlcNAc(b1-3)Gal(b1-4)GlcNAc(b1-3)Gal(b1-4)GlcNAc(b1-2)Man(a1-6)]Man(b1-4)GlcNAc(b1-4)GlcNAc", "procedure,_shortened": "as §1"}, "[23]": {"target": "Gal(b1-4)GlcNAc(b1-3)Gal(b1-4)GlcNAc(b1-3)GalNAc", "procedure,_shortened": "as §1"}},
  "note": "Some of the results follow.",
  "data": [
    {"binder": "BC2LB (Burholderia cenocepacia), B4EH85_BURCJ (protein) MGSSHHHHHHSSGENLYFQGHMSQPFTHDDLYALLQLAGNDATAVQANGDQAVLDRMRQFMTAQLVEKLPQYDVFVDIATIPYSFDVGSWQNKVKTDAAGEVVACTVTWAGAPGVLPGAAAKFGVGAVVNYFSKATPH", "values": [
      {"measurement": "glycan array binding signal (z-score)", "setting": "[1]", "value": -0.243},
      {"measurement": "glycan array binding signal (z-score)", "setting": "[2]", "value": -0.374},
      {"measurement": "glycan array binding signal (z-score)", "setting": "[3]", "value": -0.237},
      {"measurement": "glycan array binding signal (z-score)", "setting": "[4]", "value": -0.131},
      {"measurement": "glycan array binding signal (z-score)", "setting": "[5]", "value": -0.143},
      {"measurement": "glycan array binding signal (z-score)", "setting": "[6]", "value": -0.171},
      {"measurement": "glycan array binding signal (z-score)", "setting": "[7]", "value": -0.295},
      {"measurement": "glycan array binding signal (z-score)", "setting": "[8]", "value": -0.229},
      {"measurement": "glycan array binding signal (z-score)", "setting": "[9]", "value": -0.027},
      {"measurement": "glycan array binding signal (z-score)", "setting": "[10]", "value": 11.3},
      {"measurement": "glycan array binding signal (z-score)", "setting": "[11]", "value": -0.216},
      {"measurement": "glycan array binding signal (z-score)", "setting": "[12]", "value": -0.306},
      {"measurement": "glycan array binding signal (z-score)", "setting": "[13]", "value": 0.179},
      {"measurement": "glycan array binding signal (z-score)", "setting": "[14]", "value": -0.032},
      {"measurement": "glycan array binding signal (z-score)", "setting": "[15]", "value": -0.169},
      {"measurement": "glycan array binding signal (z-score)", "setting": "[16]", "value": -0.045},
      {"measurement": "glycan array binding signal (z-score)", "setting": "[17]", "value": 0.166},
      {"measurement": "glycan array binding signal (z-score)", "setting": "[18]", "value": -0.198},
      {"measurement": "glycan array binding signal (z-score)", "setting": "[19]", "value": -0.104},
      {"measurement": "glycan array binding signal (z-score)", "setting": "[20]", "value": 0.012},
      {"measurement": "glycan array binding signal (z-score)", "setting": "[21]", "value": -0.058},
      {"measurement": "glycan array binding signal (z-score)", "setting": "[22]", "value": -0.107},
      {"measurement": "glycan array binding signal (z-score)", "setting": "[23]", "value": -0.04}
    ]}
  ]
}
